In PubChem BioAssay AID588855 (National Center for Advancing Translational Sciences (NCATS), 2011):
The whole screen tested about 410,000 compounds, of which about 5,000 (1.2%) were called active. The shares of active, inactive and inconclusive entries below differ from those in the screen. Calls come from the whole dose curve; as a rule, active = well fitted inhibition curve with a large enough effect; inconclusive = small, poorly fitted or top-dose-only effect; inactive = no such curve, though single readings can be large or run the other way. Potencies of inconclusive entries are doubtful fits and often do not repeat.

Assay: qHTS for Inhibitors of TGF-b; note: nearly all actives have a fitted effect of over 65% in size
Conditions: HepG2 CAGA-GFP TGF-b/SMAD3 reporter, GFP fluorescence, 18 h, TGF-beta stimulated, 500 pg/mL final; series mostly up to 46.1 µM; activity, negative = inhibition: at the top concentration
How it was run: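 Per well, imaged GFP fluorescence of HEPG2 CAGA-GFP cells gives the signal; cells get compound, then TGF-beta (500 pg/mL final), 18 h at 37 degrees C; %Activity versus -TGF-beta and +DMSO controls.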
% is set by controls: 0 for no effect and ±100 for the full control effect; potency is the fitted concentration of half-maximal effect; tags give direction and shape of the fitted curve.

Structure (SMILES)	Potency	activity, negative = inhibition
COc1ccc(-c2nc3nc(C)cc(Nc4ccc(C(C)=O)cc4)n3n2)cc1	inconclusive: 0.112 µM [inhibitor, full curve, poor fit]	
Cc1nc2ccccc2n1CSc1ccccc1		inactive: 0.892%
CCOc1ccc(C(=O)C(C)OC(=O)c2cnc(C)cn2)cc1 (configuration not stated)		inactive: -1.33%
O=c1[nH]c(Cc2ccc(F)cc2)nc2scc(-c3ccc(F)cc3)c12	inconclusive: 5.62 µM [inhibitor, single point]	
CCc1c(C(C)S(=O)(=O)c2ccc(C)cc2)[nH]c(=O)n1-c1ccc(C)cc1 (configuration not stated)		inactive: -17.5%
O=C(CCn1c(=O)c2cccn2c2ccc(F)cc21)NCCc1ccccc1Cl	inconclusive: 6.31 µM [inhibitor, single point]	
CCCOc1ccc(Nc2nc(SC)ncc2C(=O)OCC)cc1		inactive: -3.31%
COc1cccc2c1Oc1nc(-c3ccccc3)nc(SCC(=O)N3CCCCC3)c1C2	inconclusive: 6.31 µM [inhibitor, single point]	
CC(=O)N[C@@H](Cc1c[nH]c2ccccc12)C(=O)OCc1cc(C(F)(F)F)cc(C(F)(F)F)c1	inconclusive: 35.5 µM [inhibitor, single point]	
COc1ccc(NC(=O)C(=O)NCCc2csc(-c3ccc(Cl)cc3)n2)cc1		inactive: 5.95%
CCN(CC)C(=O)CSc1nc2ccccc2c(=O)n1CC		inactive: 0%
Cc1occc1-c1nnc(SCC(=O)NC2CC2)n1C(C)C		inactive: 1.65%
COC(=O)c1ccccc1NC(=O)N1CCN(S(C)(=O)=O)CC1		inactive: 23%
COc1cc(OC)c(C(=O)OCC(=O)Nc2ccc(N3CCOCC3)cc2)cc1OC		inactive: -5.91%
O=C1CC(c2ccccc2)CN1C(=O)c1cncc(Br)c1 (configuration not stated)	inconclusive: 35.5 µM [inhibitor, single point]	
COc1cc(OC)c(Cl)cc1N	inconclusive: 3.98 µM [inhibitor, single point]	
CCCCOc1ccc(-c2cc(C(=O)NNC(=S)NCC)c3ccccc3n2)cc1	inconclusive: 35.5 µM [inhibitor, single point]	
O=C(COc1ccccc1[N+](=O)[O-])NNC(=O)Nc1cccc2ccccc12		inactive: -6.59%
Cc1nnc2n1N=C(c1ccc(F)cc1F)CS2		inactive: 8.48%
Cc1cccc(C)c1NC(=O)CN1CCN(c2ccc(C(F)(F)F)cn2)CC1	inconclusive: 3.98 µM [inhibitor, full curve, poor fit]	
COc1ccc(CCNC(=O)C2CCCN(S(=O)(=O)N3CCCCCC3)C2)cc1OC (configuration not stated)	inconclusive: 12.6 µM [inhibitor, partial curve, poor fit]	
COc1ccc(C=NNC(=O)CCCCC(=O)NN=Cc2ccc(OC)cc2)cc1		inactive: 7.07%
Cc1nn(-c2ccccc2)c(C)c1C(=O)OCC(=O)N1CCN(S(=O)(=O)c2ccccc2)CC1	inconclusive: 3.16 µM [inhibitor, single point]	
Cc1ccc(S(=O)(=O)N2CCN(c3ccccc3)CC2)cc1C(N)=O		inactive: 0.687%

Structure (SMILES)	Potency	activity, negative = inhibition
CCN(C(=O)COc1cc(=O)n(C)c2ccccc12)c1cccc(C(F)(F)F)c1	inconclusive: 11.2 µM [inhibitor, single point]	
Cc1ccc(S(=O)(=O)Nc2cc(C(=O)Nc3cc(C)cc(C)c3)ccc2Cl)cc1	inconclusive: 35.5 µM [inhibitor, single point]	
COc1ccc(S(=O)(=O)N2CCOCC2)cc1C(=O)N(C)Cc1ccco1		inactive: 1.73%
CCOc1ccc(CCNC(=O)c2ccc(CS(=O)(=O)Cc3ccccc3Cl)o2)cc1OCC	inconclusive: 2.82 µM [inhibitor, full curve, poor fit]	
COc1cccc(OCC(=O)Nc2ccncc2)c1		inactive: -12.3%
CCOc1ccc(-c2ccc(NS(=O)(=O)c3cc(C)c(C)cc3C)cc2)nn1	inconclusive: 35.5 µM [inhibitor, single point]	
COc1cc2c(cc1OC)CN(S(=O)(=O)c1ccc3c(c1)OCCO3)CC2		inactive: -17.8%
Oc1cccc2ccc(Nc3ccccn3)nc12	inconclusive: 2.51 µM [inhibitor, full curve, poor fit]	
COc1cccc(C(=O)OC(C)C(=O)NCC2CCCCC2)c1 (configuration not stated)		inactive: -7.49%
COc1ccc(N2CCN(C(=O)c3ccc(F)cc3)CC2)c([N+](=O)[O-])c1	inconclusive: 0.112 µM [inhibitor, full curve, poor fit]	
O=[N+]([O-])c1ccc(N/N=C/c2c[nH]c3ccccc23)cc1	inconclusive: 35.5 µM [inhibitor, single point]	
Cc1ccc(C(C#N)=Cc2ccc3c(c2)OCO3)cc1		inactive: -0.381%
S=c1[nH]nc(C2CCCCC2)n1/N=C/c1ccc(Br)s1	inconclusive: 35.5 µM [inhibitor, single point]	
CCC(C)N(C(=O)Cn1nc(C)c([N+](=O)[O-])c1C)C1CCS(=O)(=O)C1 (configuration not stated)	inconclusive: 3.98 µM [inhibitor, single point]	
Cc1cc(C)cc(NC(=O)CCC(=O)Nc2nnc(C(C)C)s2)c1	inconclusive: 8.91 µM [inhibitor, partial curve, poor fit]	
COc1ccc(N2CCN(C(=O)Cc3noc4ccc(C)cc34)CC2)cc1		inactive: -6.86%
COC(=O)C1=C(C)NC(C)=C(C(=O)O[C@@H]2CCCN(Cc3ccccc3)C2)[C@@H]1c1cccc([N+](=O)[O-])c1	inconclusive: 35.5 µM [inhibitor, single point]	
O=C(c1cc(C(=O)NCCc2ccccc2)c(=O)n(CCc2ccccc2)c1)c1cc(Cl)ccc1O	inconclusive: 2.82 µM [inhibitor, partial curve, poor fit]	
COc1ccc(C(=O)/C=C/C(=O)N(CC(=O)NC2CCCCC2)Cc2ccccc2OC)c(O)c1	inconclusive: 17.8 µM [inhibitor, partial curve]	
O=C(COc1ncnc2c(Cl)cc(Cl)cc12)Nc1cc([N+](=O)[O-])ccc1Cl		inactive: 16.6%
COc1ccc(C(C#N)=C2C=CC(=NO)C=C2)cc1	inconclusive: 35.5 µM [inhibitor, single point]	
O=C(c1ccccc1)N1CCN(Cc2cccc(Oc3ccccc3)c2)CC1	inconclusive: 15.8 µM [inhibitor, single point]	
Cc1ccc(C)c(NC(=O)C(=O)NCCc2csc(-c3cccc(F)c3)n2)c1	inconclusive: 0.112 µM [inhibitor, full curve, poor fit]	
COc1cc2c(C(=O)N3CCN(c4ccc(C)cc4)C(C)C3)cn(CC(C)C)c(=O)c2cc1OC (configuration not stated)	inconclusive: 12.6 µM [inhibitor, partial curve, poor fit]	

Structure (SMILES)	Potency	activity, negative = inhibition
Cc1nc2ccccn2c(=O)c1NC(=O)c1ccccc1Cl		inactive: 2.26%
CC1CCCN(CCOc2ccc3ccccc3c2Br)C1 (configuration not stated)	inconclusive: 20 µM [inhibitor, single point]	
CC(C)C[C@H]1CN=C(Nc2ccccc2)N1CCC1CCCCC1	inconclusive: 0.794 µM [inhibitor, full curve]	
O=C(N=Nc1c(O)[nH]c2ccc([N+](=O)[O-])cc12)c1ccccc1[N+](=O)[O-]	inconclusive: 0.631 µM [inhibitor, partial curve, poor fit]	
Cc1ccc(Br)c(NS(=O)(=O)c2cccc(C(=O)N3CCNC(=O)C3)c2)c1	inconclusive: 0.501 µM [inhibitor, full curve]	
O=C(c1ccncc1)N1c2ccccc2Sc2ccccc21		inactive: -20.3%
C=C(C)C1(O)OC(=O)C=C1OC (configuration not stated)		inactive: -11.8%
Cc1cc(C)nc(SCC(=O)Nc2ncc(Cc3cccc(Cl)c3)s2)n1	inconclusive: 14.1 µM [inhibitor, single point]	
CC(CCc1ccccc1)NC(=O)COC(=O)c1cc(NS(=O)(=O)c2ccc(Cl)c([N+](=O)[O-])c2)ccc1O (configuration not stated)	inconclusive: 35.5 µM [inhibitor, single point]	
S=C(Nc1ccc(Oc2ccc(NC(=S)NC3CCCCC3)cc2)cc1)NC1CCCCC1		inactive: -2.03%
O=C(CCc1ccccc1)NNC(=O)Nc1cccc(Cl)c1		inactive: -1.16%
CCN(CC)CCNC(=O)c1ccc(NC(=O)Cc2cccc3ccccc23)cc1		inactive: -20.9%
CCNC(=S)Nc1ccc(Cl)c(C(F)(F)F)c1	inconclusive: 17.8 µM [inhibitor, single point]	
Cc1ccc(NC(=O)c2cccc3cccnc23)cc1		inactive: -8.35%
CCOC(=O)C1CCCN(C(=O)CCNS(=O)(=O)c2cc(Br)cnc2N)C1 (configuration not stated)		inactive: -0.0833%
Cc1ccc(CNC(=O)CCc2c(C)nn(-c3ccc(N4CCCC4)nn3)c2C)cc1	inconclusive: 12.6 µM [inhibitor, single point]	
CCc1cccc(C)c1Nc1c(-c2cccc(O)c2)nc2cnccn12	active: 11.2 µM	
CCOc1ccc(S(=O)(=O)N(CC(=O)Nc2cc(C)on2)Cc2ccccc2Cl)cc1	inconclusive: 11.2 µM [inhibitor, partial curve, poor fit]	
O=C(CCCC1=NS(=O)(=O)c2ccccc2N1)Nc1ccccc1		inactive: -0.224%
COc1cc(C(C[N+](=O)[O-])c2c(N)n(C)c(=O)n(C)c2=O)ccc1O (configuration not stated)	inconclusive: 25.1 µM [inhibitor, single point]	
CC(Nc1nc(-c2ccc3c(c2)NC(=O)CO3)cs1)c1ccccc1 (configuration not stated)	inconclusive: 11.2 µM [inhibitor, partial curve]	
COc1ccc(/C=C/c2nc(C#N)c(NC3CCCCC3)o2)cc1OC	inconclusive: 14.1 µM [inhibitor, single point]	
COc1cc(OC)cc(C(=O)OCc2ccc([N+](=O)[O-])cc2)c1		inactive: -3.11%
CCCCc1ccc(NC(=O)N[C@H](C(=O)O)C(C)CC)cc1 (some centres not stated)		inactive: 0%
